Assay results reported in PubChem BioAssay AID485364 (National Center for Advancing Translational Sciences (NCATS), 2010).
Screen size: about 360,000 compounds; about 11,000 (3.1%) were called active. The inconclusive results got no clear call from the source; some entries with a clear call stand among them for comparison. The call rests on the fitted dose curve; in most records, active means well fitted inhibition curve with a large enough effect; inconclusive means small, poorly fitted or top-dose-only effect; inactive means no such curve, though single readings can be large or run the other way. No potency is given beside an inconclusive call; the fits are too rough.

Biological target: Schistosoma mansoni thioredoxin glutathione reductase (TGR) (UniProt Q962Y6)
Assay: qHTS Assay for the Inhibitors of Schistosoma Mansoni Peroxiredoxins; further: nearly all actives have a fitted effect of over 60% in size
Settings: purified TGR, DTNB reduction, TNB absorbance 405 nm; series mostly up to 114 µM
In short: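 First, TGR (20 nM dispensed) and NADPH were mixed with compound. Second, a 15 min room-temperature incubation followed. Third, further NADPH and then DTNB were added to start the reaction. Finally, TNB absorbance was monitored kinetically.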
Potency means the concentration at half of the fitted maximal effect; tags describe the fitted curve by direction and shape.

Row | SMILES | Potency
1 | O=C(CSc1nc2c(c(=O)n1-c1ccc(Br)cc1)SCC2)NCc1ccco1 | inconclusive [inhibitor, partial curve]
2 | COc1cccc(OCCNC(=O)CSc2ccc(C(F)(F)F)cc2[N+](=O)[O-])c1 | inconclusive [inhibitor, partial curve, poor fit]
3 | COCCn1c(SCC(=O)N2CCCC2)nnc1C(C)C | inactive
4 | O=C(Nc1ccc(Cl)cc1)N1CCC(CN2CCCCCC2)CC1 | inconclusive [inhibitor, partial curve]
5 | O=C(CC(c1ccco1)C1CCCCC1=O)c1ccccc1 (configuration not stated) | inactive
6 | CN(C)c1ncc([N+](=O)[O-])cc1C(F)(F)F | inconclusive [inhibitor, partial curve]
7 | c1ccc(Cc2noc(CN3CCCN(C4Cc5ccccc5C4)CC3)n2)cc1 | active: 25.1 µM
8 | CC/C(=C(/CC)c1ccc(O)cc1)c1ccc(O)cc1 | inactive
9 | Cc1ccc(C)n1C(Cc1ccccc1)C(=O)O (configuration not stated) | inconclusive [inhibitor, partial curve]
10 | Cc1csc2nc(CSc3ccc(Cl)cc3)cn12 | inconclusive [inhibitor, partial curve]
11 | CCN(CC)c1ccc(/C=N/Nc2nc3ccccc3[nH]2)cc1 | inconclusive [inhibitor, single point]
12 | CC(=O)Nc1ccc(S(=O)(=O)NNC(=S)NCC2CCCO2)cc1 (configuration not stated) | inconclusive [inhibitor, full curve]
13 | C/C(=N\NC(N)=O)C1CC(Cc2ccccc2)C(=O)O1 (configuration not stated) | inconclusive [inhibitor, partial curve, poor fit]
14 | CCOc1ccccc1NC(=O)Nc1cc(C(=O)NCc2ccc(C)cc2)ccc1N1CCCC1 | inactive
15 | CCOc1ccc2cc(C3CC(c4ccco4)=NN3S(C)(=O)=O)c(Cl)nc2c1 (configuration not stated) | inconclusive [inhibitor, partial curve]
16 | CCOC(=O)C(N)CSC1CC(=O)N(c2ccc(C(=O)OC)cc2)C1=O (configuration not stated) | inconclusive [inhibitor, partial curve]
17 | c1cc(C(c2nnnn2C2CCCCC2)N2CCN3CCCC3C2)ccn1 (configuration not stated) | inconclusive [inhibitor, partial curve]
18 | CC(C)NC(=S)N/N=C/c1cccs1 | inconclusive [inhibitor, full curve, poor fit]
19 | COc1cc2c(cc1OC)C(c1cccs1)N(C(=O)c1cccnc1)CC2 (configuration not stated) | inactive
20 | Cc1noc(C)c1COC(=O)c1ccc(N(C)C)cc1 | inactive
21 | COc1ccc(N(C)C(=O)CCS(=O)(=O)c2cccc3nonc23)c(OC)c1 | inconclusive [inhibitor, partial curve]
22 | CCC[N+](CC#CCO)(CC#Cc1ccccc1)CCC | inconclusive [inhibitor, partial curve]
23 | Cc1nc(C(C)N(C)Cc2nc(Cc3ccccc3F)no2)c(C)s1 (configuration not stated) | inconclusive [inhibitor, partial curve]
24 | Cc1ccc(CNC(=O)C2CCC(=O)N2C(C)C)cc1 (configuration not stated) | inactive

Row | SMILES | Potency
25 | CCc1ccc(NC(=S)NCc2cccnc2)cc1 | inconclusive [inhibitor, partial curve]
26 | Cc1ccccc1C1=NC(c2ccc(F)cc2F)ON1 (configuration not stated) | inconclusive [inhibitor, single point]
27 | Cc1cccc(C)c1NS(=O)(=O)c1ccc2c(c1)[C@H]1C=CC[C@H]1[C@@H](c1ccc(Cl)cc1)N2 | inconclusive [inhibitor, partial curve]
28 | CC(=O)NCC1CCCN(c2nc3nonc3nc2N(C)Cc2ccccc2)C1 (configuration not stated) | inconclusive [inhibitor, full curve]
29 | COc1ccc(Br)cc1C(=O)Nc1ccc(N2CCCC2)cc1 | inconclusive [inhibitor, full curve, poor fit]
30 | O=C(COC(=O)c1ccc([N+](=O)[O-])o1)Nc1cccc2ccccc12 | active: 14.1 µM
31 | CCOC(=O)N1CCN(Cc2nc3cc(NC(=O)c4ccco4)ccc3n2C)CC1 | active: 50.1 µM
32 | COc1ccc(-c2nc(CN3CCC(C(=O)N4CCOCC4)CC3)c(C)o2)c(OC)c1 | inconclusive [inhibitor, single point]
33 | CCn1c(CNC(=O)c2cccc(C)c2)nnc1SCC(=O)N1CCOCC1 | inactive
34 | O=C(Nc1cc(-c2nc3ccccc3o2)ccc1Cl)c1ccc(Br)o1 | inconclusive [inhibitor, single point]
35 | O=C1NC(=O)N(c2ccc(Br)cc2)C(=O)/C1=C/c1ccsc1 | inconclusive [inhibitor, full curve, poor fit]
36 | Cc1ccc(C(=O)N/C(=C/C=C\c2ccccc2)C(=O)NCc2ccco2)cc1 | inconclusive [inhibitor, partial curve]
37 | COc1ccccc1CNC(=O)C(NS(=O)(=O)c1ccc2c(c1)CCN2C(C)=O)C(C)C (configuration not stated) | inactive
38 | CC(=O)Nc1cccc(C(=O)OC(C(=O)c2ccc(C)cc2)c2ccccc2)c1 (configuration not stated) | inactive
39 | CCCCCC(=O)Nc1cccc(S(=O)(=O)NC2=NCCC2)c1 | inactive
40 | COC(=O)CC(NC(=S)NC(=O)c1ccccc1)c1ccc(Br)cc1 (configuration not stated) | inconclusive [inhibitor, full curve]
41 | COc1cccc(/C=C2/C(=O)NN(c3ccc(F)cc3)C2=O)c1 | inconclusive [inhibitor, single point]
42 | Cc1ccc(-c2nc3c(c(=O)c4ccccc4n3C)c(=O)n2Cc2ccco2)cc1 | active: 31.6 µM
43 | CO/N=C(\N)c1nonc1N | inactive
44 | O=C(c1ccc2[nH]c(=O)c(=O)[nH]c2c1)N1CCc2ccccc21 | inactive
45 | NS(=O)(=O)c1ccc(CCNCC#Cc2ccccc2)cc1 | inconclusive [inhibitor, partial curve, poor fit]
46 | COc1ccc(NC(=O)Cn2cccc2)c(OC)c1 | inconclusive [inhibitor, partial curve]
47 | COc1ncc(-c2ccc3c(c2)S(=O)(=O)c2cccc(C(=O)NCc4ccco4)c2C3=O)cn1 | inconclusive [inhibitor, partial curve]
48 | CC(=O)c1cccc(NC(=O)CN2CCN(Cc3ccccc3)CC2)c1 | inconclusive [inhibitor, partial curve]

Row | SMILES | Potency
49 | CC(CCc1ccc(O)cc1)NCc1ccc(Br)cc1 (configuration not stated) | inactive
50 | O=C(Nc1nc2c(s1)CN(Cc1ccccc1)CC2)C1CCCC1 | inconclusive [inhibitor, partial curve]
51 | CCOCCCNC(=S)N(CCCN(C)C)Cc1cc2cc3c(cc2[nH]c1=O)OCCO3 | inconclusive [inhibitor, full curve]
52 | CCOc1cc(C2C(C#N)=C(N)OC(C)=C2C(C)=O)cc(Br)c1O (configuration not stated) | active: 50.1 µM
53 | CC1=CC2=C(OC1N(C)C)c1cccc3cccc(c13)C2=O (configuration not stated) | inconclusive [inhibitor, full curve]
54 | Cc1cc(-c2ccccc2)nnc1NCCN1CCOCC1 | inactive
55 | C/C(=N/N1CCN(Cc2ccccc2)CC1)c1ccc(Br)cc1 | inactive
56 | Cc1ccccc1NC(=O)CSc1n[nH]c(-c2ccccn2)n1 | inactive
57 | CCOC(=O)c1cc(-c2ccccc2)sc1NC(=O)CN1C(=O)NC(CC)(c2ccccc2)C1=O (configuration not stated) | inactive
58 | Cc1ccc(-c2nc3cnccn3c2Nc2ccc3c(c2)OCCO3)o1 | inconclusive [inhibitor, partial curve]
59 | CCOC(=O)Cc1csc(NC(=O)c2sc3nc4ccc(CC)cc4cc3c2N)n1 | inactive
60 | Cc1ccc(OCCC(=O)OCC(=O)N2CCN(S(=O)(=O)c3ccc(Cl)cc3)CC2)cc1 | inactive
61 | CC(/C=C/c1ccccc1)=N\Nc1nc2c(c(=O)[nH]c(=O)n2C)n1CCO | active: 14.1 µM
62 | CCn1nnc2cc(C(=O)Nc3ccc(C)cc3Br)ccc21 | inconclusive [inhibitor, single point]
63 | COc1ccc(CCNC(=O)c2cc3cccc(OC)c3oc2=O)cc1OC | inconclusive [inhibitor, full curve]
64 | COC(C[C@H](O)CC(=O)[C@H](C)OCc1ccccc1)OC | active: 44.7 µM
65 | CCCSc1ccc([C@@H]2[C@@H]3C(=O)N(C)C(=O)[C@@H]3[C@]3(C(=O)OC)CCCCN23)cc1OC | inconclusive [inhibitor, full curve, poor fit]
66 | CCOC(=O)Nc1nnc(-c2cccc(OC)c2)s1 | inconclusive [inhibitor, full curve, poor fit]
67 | Nc1nonc1C(=O)NCCNCc1ccccc1OCc1ccccc1F | inconclusive [inhibitor, partial curve, poor fit]
68 | O=C(CCCOc1ccccc1)NCC1CCCO1 (configuration not stated) | inactive
69 | CCCCCCOc1ccc(N2C(=O)CC(N3CCN(CCN=CC4C(=O)CC(C)(C)CC4=O)CC3)C2=O)cc1 (configuration not stated) | inconclusive [inhibitor, partial curve]
70 | Cc1ccc(C)c(OCCC(=O)OCC(=O)N2CCN(S(=O)(=O)c3ccc(Cl)cc3)CC2)c1 | inconclusive [inhibitor, partial curve]
71 | COc1ccc(C(=O)NC(=S)Nc2cccc(S(=O)(=O)N3CCOCC3)c2)cc1 | inconclusive [inhibitor, full curve, poor fit]
72 | COc1cc(/C=N/Nc2nc(N3CCCC3)nc(N3CCCC3)n2)ccc1O | inactive
